Measurements: the supplement of paper PMC7826260
The other results are listed elsewhere or left out. Each Rep nickase domain was tested in vitro on the same pool of single strands for 1 h at 37 °C with 3 µM enzyme; only the middle of the 90-letter strands is printed. Values are log2 of uncut reads against the no-enzyme pool; the lower, the more was cut; hits are not called. Because reads are shares of a total, they shift together; uncut strands gain when others are lost, and binding without cutting may add a little.

How the values were obtained:
Experiment in all cases: uncleaved DNA left, log2 of reads against the no-enzyme library (log2 ratio); higher = less cleavage (more negative = more Rep cleavage of the k-mer); sequences stand for … in CTCGTCCG…ACCGGAGA
[1] = tested on: T1, Rep nickase domain of Muscovy duck circovirus
T1 sequence (residues 1-111 of Rep, tag left off): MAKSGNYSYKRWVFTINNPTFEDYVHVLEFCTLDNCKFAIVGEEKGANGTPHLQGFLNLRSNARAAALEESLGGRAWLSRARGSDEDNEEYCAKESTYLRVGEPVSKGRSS
Description: (§1)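 A pool of 90-nt single-stranded DNAs with seven random bases just before the constant AC of the nick site (name = the seven bases) was cut by 3 µM recombinant His6-SUMO-tagged Rep nickase domain (300 nM DNA, 50 mM HEPES pH 8.0, 50 mM NaCl, 1 mM MnCl2, 1 h, 37 °C, three replicates). Uncut DNA was amplified and sequenced.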

[2] = tested on: T2, Rep nickase domain of banana bunchy top virus
T2 sequence (residues 1-94 of Rep, tag left off): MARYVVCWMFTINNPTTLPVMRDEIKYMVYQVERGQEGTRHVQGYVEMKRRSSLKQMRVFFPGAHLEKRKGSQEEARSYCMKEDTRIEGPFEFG
Description: as §1

[3] = tested on: T3, Rep nickase domain of cabbage leaf curl virus
T3 sequence (residues 1-116 of Rep, tag left off): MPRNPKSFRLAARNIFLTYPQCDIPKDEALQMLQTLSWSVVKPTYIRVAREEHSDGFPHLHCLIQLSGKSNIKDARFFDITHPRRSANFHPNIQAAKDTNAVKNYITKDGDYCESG
Description: as §1

[4] = tested on: T4, Rep nickase domain of chickpea chlorotic dwarf virus
T4 sequence (residues 1-124 of Rep, tag left off): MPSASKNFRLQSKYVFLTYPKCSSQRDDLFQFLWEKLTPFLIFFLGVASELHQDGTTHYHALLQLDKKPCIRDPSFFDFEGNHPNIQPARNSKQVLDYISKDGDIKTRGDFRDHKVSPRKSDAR
Description: as §1

[5] = tested on: T5, Rep nickase domain of faba bean necrotic yellows virus
T5 sequence (residues 1-98 of Rep, tag left off): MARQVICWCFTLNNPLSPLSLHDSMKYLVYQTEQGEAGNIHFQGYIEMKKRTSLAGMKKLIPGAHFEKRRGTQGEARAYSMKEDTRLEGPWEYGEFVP
Description: as §1

[6] = tested on: T6, Rep nickase domain of maize striate mosaic virus
T6 sequence (residues 1-117 of Rep, tag left off): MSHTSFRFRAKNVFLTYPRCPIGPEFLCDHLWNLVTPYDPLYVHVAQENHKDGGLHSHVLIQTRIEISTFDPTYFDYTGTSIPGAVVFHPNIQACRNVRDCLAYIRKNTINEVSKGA
Description: as §1

[7] = tested on: T7, Rep nickase domain of porcine circovirus 2
T7 sequence (residues 2-116 of Rep, tag left off): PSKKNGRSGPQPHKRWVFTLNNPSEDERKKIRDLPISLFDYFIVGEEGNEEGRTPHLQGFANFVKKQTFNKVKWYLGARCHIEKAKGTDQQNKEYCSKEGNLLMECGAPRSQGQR
Description: as §1

[8] = tested on: T8, Rep nickase domain of tomato yellow leaf curl virus
T8 sequence (residues 1-136 of Rep, tag left off): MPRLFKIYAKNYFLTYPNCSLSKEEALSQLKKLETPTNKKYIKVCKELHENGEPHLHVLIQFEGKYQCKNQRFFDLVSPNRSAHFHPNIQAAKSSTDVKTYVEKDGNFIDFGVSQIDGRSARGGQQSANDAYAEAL
Description: as §1

[9] = tested on: T9, Rep nickase domain of wheat dwarf virus
T9 sequence (residues 1-137 of Rep, tag left off): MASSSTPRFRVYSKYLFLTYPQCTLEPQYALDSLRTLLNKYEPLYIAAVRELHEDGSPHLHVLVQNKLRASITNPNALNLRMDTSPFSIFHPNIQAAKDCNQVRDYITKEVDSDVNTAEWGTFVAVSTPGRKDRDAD
Description: as §1

## GCGCGTA
[1]
  uncleaved DNA left (log2): -0.106
[2]
  uncleaved DNA left (log2): -0.0448
[3]
  uncleaved DNA left (log2): -0.194
[4]
  uncleaved DNA left (log2): -0.322
[5]
  uncleaved DNA left (log2): -0.0339
[6]
  uncleaved DNA left (log2): -0.363
[7]
  uncleaved DNA left (log2): 0.00161
[8]
  uncleaved DNA left (log2): -0.107
[9]
  uncleaved DNA left (log2): -0.109

## GTGCATG
[1]
  uncleaved DNA left (log2): -0.0167
[2]
  uncleaved DNA left (log2): -0.0477
[3]
  uncleaved DNA left (log2): -0.0483
[4]
  uncleaved DNA left (log2): 0.434
[5]
  uncleaved DNA left (log2): -0.103
[6]
  uncleaved DNA left (log2): -0.0344
[7]
  uncleaved DNA left (log2): 0.0829
[8]
  uncleaved DNA left (log2): -0.0667
[9]
  uncleaved DNA left (log2): -0.0287

## ACTAATG
[1]
  uncleaved DNA left (log2): 0.176
[2]
  uncleaved DNA left (log2): 0.059
[3]
  uncleaved DNA left (log2): -0.406
[4]
  uncleaved DNA left (log2): -0.346
[5]
  uncleaved DNA left (log2): 0.159
[6]
  uncleaved DNA left (log2): -0.999
[7]
  uncleaved DNA left (log2): 0.205
[8]
  uncleaved DNA left (log2): 0.0132
[9]
  uncleaved DNA left (log2): 0.105

## GTGAGAC
[1]
  uncleaved DNA left (log2): 0.191
[2]
  uncleaved DNA left (log2): 0.166
[3]
  uncleaved DNA left (log2): 0.593
[4]
  uncleaved DNA left (log2): 1.22
[5]
  uncleaved DNA left (log2): 0.164
[6]
  uncleaved DNA left (log2): 2.03
[7]
  uncleaved DNA left (log2): 0.218
[8]
  uncleaved DNA left (log2): 0.179
[9]
  uncleaved DNA left (log2): 0.229

## TCGGCAA
[1]
  uncleaved DNA left (log2): 0.112
[2]
  uncleaved DNA left (log2): 0.0176
[3]
  uncleaved DNA left (log2): 0.0171
[4]
  uncleaved DNA left (log2): 0.108
[5]
  uncleaved DNA left (log2): -0.024
[6]
  uncleaved DNA left (log2): -0.222
[7]
  uncleaved DNA left (log2): 0.0815
[8]
  uncleaved DNA left (log2): -0.00238
[9]
  uncleaved DNA left (log2): 0.0265

## GAGAGAG
[1]
  uncleaved DNA left (log2): 0.0166
[2]
  uncleaved DNA left (log2): 0.0477
[3]
  uncleaved DNA left (log2): 0.048
[4]
  uncleaved DNA left (log2): 0.579
[5]
  uncleaved DNA left (log2): 0.0644
[6]
  uncleaved DNA left (log2): -0.287
[7]
  uncleaved DNA left (log2): 0.141
[8]
  uncleaved DNA left (log2): 0.0939
[9]
  uncleaved DNA left (log2): 0.11

## ACAGACA
[1]
  uncleaved DNA left (log2): -0.0375
[2]
  uncleaved DNA left (log2): 0.043
[3]
  uncleaved DNA left (log2): 0.00532
[4]
  uncleaved DNA left (log2): -1.08
[5]
  uncleaved DNA left (log2): 0.149
[6]
  uncleaved DNA left (log2): -0.196
[7]
  uncleaved DNA left (log2): 0.144
[8]
  uncleaved DNA left (log2): -0.168
[9]
  uncleaved DNA left (log2): 0.00159

## CATCAAC
[1]
  uncleaved DNA left (log2): -0.0961
[2]
  uncleaved DNA left (log2): -0.0391
[3]
  uncleaved DNA left (log2): -0.113
[4]
  uncleaved DNA left (log2): -1.48
[5]
  uncleaved DNA left (log2): -0.0598
[6]
  uncleaved DNA left (log2): -0.87
[7]
  uncleaved DNA left (log2): -0.0883
[8]
  uncleaved DNA left (log2): -0.0228
[9]
  uncleaved DNA left (log2): -0.0425

## GCGCGCA
[1]
  uncleaved DNA left (log2): 0.0605
[2]
  uncleaved DNA left (log2): 0.03
[3]
  uncleaved DNA left (log2): -0.0996
[4]
  uncleaved DNA left (log2): 0.289
[5]
  uncleaved DNA left (log2): -0.0592
[6]
  uncleaved DNA left (log2): 0.418
[7]
  uncleaved DNA left (log2): -0.0579
[8]
  uncleaved DNA left (log2): 0.0101
[9]
  uncleaved DNA left (log2): -0.0325

## AAAAACT
[1]
  uncleaved DNA left (log2): 0.0898
[2]
  uncleaved DNA left (log2): 0.077
[3]
  uncleaved DNA left (log2): -2.89
[4]
  uncleaved DNA left (log2): -2.73
[5]
  uncleaved DNA left (log2): 0.181
[6]
  uncleaved DNA left (log2): -1.08
[7]
  uncleaved DNA left (log2): -1.67
[8]
  uncleaved DNA left (log2): 0.0589
[9]
  uncleaved DNA left (log2): -1.02

## GGGTCCG
[1]
  uncleaved DNA left (log2): 0.155
[2]
  uncleaved DNA left (log2): 0.101
[3]
  uncleaved DNA left (log2): 0.562
[4]
  uncleaved DNA left (log2): 1.2
[5]
  uncleaved DNA left (log2): 0.094
[6]
  uncleaved DNA left (log2): 1.27
[7]
  uncleaved DNA left (log2): 0.244
[8]
  uncleaved DNA left (log2): 0.00122
[9]
  uncleaved DNA left (log2): 0.164

## GTGTTAT
[1]
  uncleaved DNA left (log2): -0.00449
[2]
  uncleaved DNA left (log2): 0.0153
[3]
  uncleaved DNA left (log2): 0.332
[4]
  uncleaved DNA left (log2): 0.934
[5]
  uncleaved DNA left (log2): 0.11
[6]
  uncleaved DNA left (log2): 1.71
[7]
  uncleaved DNA left (log2): -0.217
[8]
  uncleaved DNA left (log2): 0.0396
[9]
  uncleaved DNA left (log2): -0.0224

## TAAGCCG
[1]
  uncleaved DNA left (log2): 0.0354
[2]
  uncleaved DNA left (log2): -0.0532
[3]
  uncleaved DNA left (log2): -0.768
[4]
  uncleaved DNA left (log2): -0.502
[5]
  uncleaved DNA left (log2): 0.0609
[6]
  uncleaved DNA left (log2): -1.17
[7]
  uncleaved DNA left (log2): 0.17
[8]
  uncleaved DNA left (log2): 0.00572
[9]
  uncleaved DNA left (log2): -0.0472

## ATGAAGG
[1]
  uncleaved DNA left (log2): 0.07
[2]
  uncleaved DNA left (log2): 0.0782
[3]
  uncleaved DNA left (log2): 0.154
[4]
  uncleaved DNA left (log2): 0.83
[5]
  uncleaved DNA left (log2): -0.0647
[6]
  uncleaved DNA left (log2): 0.0652
[7]
  uncleaved DNA left (log2): -0.0025
[8]
  uncleaved DNA left (log2): -0.116
[9]
  uncleaved DNA left (log2): 0.0333

## CTCCTGT
[1]
  uncleaved DNA left (log2): -0.0168
[2]
  uncleaved DNA left (log2): -0.00765
[3]
  uncleaved DNA left (log2): -0.196
[4]
  uncleaved DNA left (log2): -0.684
[5]
  uncleaved DNA left (log2): 0.0208
[6]
  uncleaved DNA left (log2): -0.601
[7]
  uncleaved DNA left (log2): -0.162
[8]
  uncleaved DNA left (log2): -0.0569
[9]
  uncleaved DNA left (log2): 0.002
